Measurements taken from PubChem BioAssay AID1508642 (National Center for Advancing Translational Sciences (NCATS), 2021).
The whole screen tested about 43,000 compounds, of which about 200 (0.47%) were called active. Another 12% or so got no clear call; they are omitted. Calls follow the shape of the dose curve; as a rule, active = well fitted cell-killing curve with a large enough effect; inconclusive = small, poorly fitted or top-dose-only effect, or effect the other way; inactive = flat fitted curve, though single readings scatter. Some of the results follow.

assay: Cell viability qHTS assay in S16 Pmp22-F2sN cells; details: S16 Pmp22-F2sN Schwann cells viability, CellTiter-Glo, 24 h; series mostly up to 57.5 µM; activity change, negative = cytotoxicity: at the top concentration; also: nearly all actives have a fitted effect of over 65% in size
How it was run: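 Viability was measured by CellTiter-Glo luminescence (15 min, room temperature). This followed 24 h at 37 °C of compound exposure (23 nL pin transfer) in S16 Pmp22-F2sN Schwann cells, 500-1,000 per well.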
% is scaled to controls: 0 for no effect and ±100 for the full control effect.

Compound	activity change, negative = cytotoxicity
CCOc1ccccc1NC(=O)CCn1c(-c2ccc(OC)cc2)cc(C(C)=O)c1C	inactive: -3.58%
CCOc1ccccc1NC(=O)C(C)Sc1cc(-c2ccccc2)nc(C)n1 (stereo not drawn)	inactive: 3.99%
Cn1c(=O)cc(SCC(=O)NCc2ccc(F)cc2)c2ccc(Cl)cc21	inactive: -0.421%
CCCCNC(=O)C1CCN(S(=O)(=O)c2cc(Br)cc3c2N(C(=O)CC)CC3)CC1	inactive: -0.763%
COc1ccc(-c2nnc(SCC(=O)Nc3cccc(F)c3)s2)cc1	inactive: 5.82%
COc1ccc(CNC(=O)Cn2c(SCC(=O)N(C)c3ccccc3)nc3ccccc32)cc1	inactive: 22.2%
CCOC(=O)c1noc2nc(C)n(CC(=O)Nc3cc(Cl)ccc3OC)c(=O)c12	inactive: 1.15%
CCCCn1c(=O)n(-c2ccc(Br)cc2F)c(=O)c2c3c(sc21)CN(C(C)=O)CC3	inactive: 1.68%
Cc1ccc(OCC(=O)Nc2c(C(=O)c3ccccc3)oc3ccccc23)cc1C	inactive: 3.64%
COc1ccccc1CNC(=O)C(=O)NCC(c1cccs1)S(=O)(=O)c1ccc(F)cc1 (stereo not drawn)	inactive: -4.96%
Cc1ccc(CNC(=O)C2CCN(S(=O)(=O)N3CCC(C)CC3)CC2)cc1	inactive: 1.68%
Oc1c(C(c2ccccc2)N2CCN(Cc3ccccc3)CC2)sc2nc(-c3ccco3)nn12 (stereo not drawn)	inactive: -2.71%
Cc1csc2nc(COC(=O)c3ccc(NC(=O)COc4ccccc4F)cc3)cc(=O)n12	inactive: -8.52%
CS(=O)(=O)c1ccc2nc(NC(=O)CS(=O)(=O)c3ccc(Cl)cc3)sc2c1	inactive: -1.13%
CCOC(=O)CNC(=O)Nc1cc(C(=O)NCc2cccc(F)c2)ccc1N1CCCC1	inactive: 12.5%
Cc1ccc(-c2nc3scc(CCNC(=O)c4cccc(Br)c4)n3n2)cc1	inactive: -7.33%
COc1ccccc1NC(=O)C1CCCN(c2nnc(C)c3c(C)n(-c4ccccc4)nc23)C1 (stereo not drawn)	inactive: -2.52%
CCCCC12CN3CC(C)(CN(C1)C3c1cc(Br)ccc1O)C2=O (stereo not drawn)	inactive: 0.0645%
COc1ccc(NC(=O)c2ccc3nc(CCc4ccccc4)oc3c2)cc1	inactive: 9.18%
CCCN(CCC)C(=O)Cn1c(=O)n(-c2cccc(C(F)(F)F)c2)c(=O)c2c(C)c(C)sc21	inactive: -5.09%
O=C(Cn1c(=O)n(Cc2ccco2)c(=O)c2cccnc21)Nc1ccccc1F	inactive: -18.7%
CCOc1cc(C(=O)Nc2ccc(-c3nc4cc(C)ccc4o3)cc2)cc(OCC)c1OCC	inactive: 5.86%
O=C(Nc1ccc2nc(SCC(=O)N3CCCC3)sc2c1)c1ccccc1	inactive: 7.59%
Cc1ccc(NC2=C(c3ccc(C(F)(F)F)cc3)C(=O)c3ccccc32)cc1F	inactive: -1.72%

Compound	activity change, negative = cytotoxicity
CCOc1ccccc1NC(=O)CSc1nc2ccccc2c2nc(CCn3cncc3C)nn12	inactive: 6.24%
O=C(NCC(c1cccnc1)N1CCc2ccccc21)c1ccccc1Br (stereo not drawn)	inactive: -13.6%
Cc1ccc2oc(=O)c3cnn(CC(=O)NCc4ccccc4Cl)c3c2c1	inactive: 3.73%
O=C1[C@@H]2CSC(c3ccc(F)cc3)N2C(=O)N1c1ccc(Cl)cc1 (stereo partly drawn)	inactive: -0.768%
COc1ccc(CNC(=O)c2cccc(N3CCCS3(=O)=O)c2)cc1	inactive: 21.8%
CCc1ccc(-n2c(=O)c3c4c(sc3n(Cc3ccc(F)cc3)c2=O)CCCC4)cc1	inactive: 4.12%
O=C(Cn1c(=O)n2nc(-c3ccccc3)nc2c2ccccc21)Nc1ccccc1C(F)(F)F	inactive: 17.1%
Nc1ncc(S(=O)(=O)NCc2cccc(Cl)c2)cn1	inactive: -1.05%
Cc1ccc(-c2nc(CCNC(=O)C(=O)Nc3ccc(C)c(C)c3)cs2)cc1	inactive: 6.44%
Cc1ccc(C)n1-c1nnc(N2CCC(C(=O)NCc3ccccc3Cl)CC2)s1	inactive: -14.9%
CSc1ccc(CNCc2c(C(=O)O)c(C)n(Cc3ccc(F)cc3Cl)c2C)cc1	inactive: 1.31%
COC(=O)c1c(NC(=O)c2ccc(S(=O)(=O)N3CCCC(C)C3)cc2)sc2c1CCN(C(C)C)C2 (stereo not drawn)	inactive: -3.92%
Cc1ccc(Cl)c2sc(N3CCN(C(=O)C4CC4)CC3)nc12	inactive: -2.56%
CC(C)c1ccc(NC(=O)CSc2ncc3c(n2)-c2ccccc2N(C)S3(=O)=O)cc1	inactive: 1.71%
Cc1c(NC(=O)c2nc3ccccc3n(C)c2=O)cccc1[N+](=O)[O-]	inactive: -0.709%
COc1cccc(N2CCN(C(=O)C3CCCN(S(=O)(=O)c4ccc(Br)s4)C3)CC2)c1 (stereo not drawn)	inactive: -28.3%
Cc1ccccc1CNC(=O)c1c(C)oc2c1C1=NCCN1C=N2	inactive: 1.48%
Cc1ccccc1Cn1cc(S(=O)(=O)c2ccc(Cl)cc2)c(=O)c2cc3c(cc21)OCO3	inactive: 5.66%
COc1ccc(NS(=O)(=O)c2cc3[nH]c(=O)c(=O)[nH]c3cc2C)cc1OC	inactive: -1.86%
Cc1ccc2c(=O)cc(C(=O)Nc3sc4c(c3C(=O)NCc3ccco3)CCC4)oc2c1C	inactive: 3.79%
Cc1ccc(NC(=O)c2ccc(NC(=O)N3CCSc4ncccc43)cc2)cc1Cl	inactive: -25.6%
CCc1ccc(-n2nc3cc(C)c(NC(=O)c4cc(Cl)ccc4OC)cc3n2)cc1	inactive: -3.45%
O=C(Cn1cc(S(=O)(=O)Cc2ccc(F)cc2)c2ccccc21)NCCc1ccccc1	inactive: -10.1%
CCCN(C(=O)Cn1ncc2c(=O)oc3ccccc3c21)c1cccc(C)c1	inactive: -17.2%
